± gives the standard deviation. The full ranking holds about 3,700 sequences; the median of “pre-steady-state target cleavage rate” is about 0.02, and the highest 2% start at about 0.23. This is a selection; strong and weak results do not stand in their true shares.
System: MILI (PIWIL2) piRISC loaded with Kctd7 piRNA (26 nt)
Test: pre-steady-state target cleavage rate (min^-1); MIWI and MILI are mouse PIWI proteins and EfPiwi is from a freshwater sponge; tags in brackets are library labels; higher = faster piRNA-guided slicing of the target
Details: guide: Kctd7 piRNA 5'p-UGUUAAUCUCUCAGAGAAGGUGACAG; auxiliary factor: 500 nM mouse GTSF1
Summary of the method: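 A burst-and-steady-state fit was used to obtain the pre-steady-state cleavage rate. The input data were sequencing reads of uncleaved targets, normalised to depth and to weakly complementary targets, from a […] transcribed, DNA-blocked target RNA library mixed with 1 nM active affinity-purified piRISC holding one synthetic guide, with or without 500 nM GTSF1 partner protein, in HEPES–potassium acetate buffer at 33 °C for 0–8 or 0–960 min. Three trials were pooled and k3 was capped at 0.0001 min^-1.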
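Further: 1 nM active piRISC with 0.1 nM target library at 33 °C single turnover.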

First: UAGUGACAGUCCAUCUCUCAGAGAUUAACA
Second: UAGUCUCGUCACCUUCUCUGAGAGAUUAACA
The “pre-steady-state target cleavage rate” value of the first is lower: 0.00455 ± 0.0032 for the first, 0.209 ± 0.012 for the second.

Compared with UAGUGAGUGACCUUCUGUGAGAGAUUAACA, UAGUCUGUCACCUUCUCUGAGACUUUAACA is lower in “pre-steady-state target cleavage rate” value: 0.128 ± 0.017 for the first, 0.00995 ± 0.005 for the second.

First: UAGUGAGUCACCUUCUGUCAGAGAUUAACA
Second: UAGUGAGUCACCUUCUCUGACAGAUUAUCA
The “pre-steady-state target cleavage rate” value of the first is higher: 0.0388 ± 0.0074 for the first, 0.0134 ± 0.007 for the second.

Going from UAGUGACUCACCUUCUCUGUGAGAUUAACA to UAGUGACAGACCUCUCUGAGAGAUUAACA, the “pre-steady-state target cleavage rate” value falls from 0.0401 ± 0.0041 to 0.0169 ± 0.0073.

UAGUGAGACACCUUCUCUGAGACAUUAACA and UAGUGACAGACCUUCUGUGAGAGUUUAACA are within error of each other in “pre-steady-state target cleavage rate” value: 0.0446 ± 0.0096 for the first, 0.0388 ± 0.0085 for the second.

UAGUGAGUCACCUUCUGUGAGAGAUUAAGA and UAGUGUGUGACCUUCUCUGAGAGAUAAACA are within error of each other in “pre-steady-state target cleavage rate” value: 0.0567 ± 0.02 for the first, 0.0935 ± 0.029 for the second.

First: UAGUGAGUCACCUUCUCUGAGAGAUAUACA
Second: UAGUGACAGUGGAUCUGUGAGAGAUUUACA
The “pre-steady-state target cleavage rate” value of the first is higher: 0.0915 ± 0.025 for the first, under 0.0001 for the second.

Going from UAGUGACUCAGGUUCUCUGAGAGAUUAACA to UAGUGACUCACCUCCUCUGAGAGAUUAACA, the “pre-steady-state target cleavage rate” value rises from 0.0267 ± 0.0065 to 0.14 ± 0.011.

Going from UAGUGACAGUGGAAGAGUGACAGUUUAACA to UAGUGACACACCUACUCUGAGAGAUUAAGA, the “pre-steady-state target cleavage rate” value rises from under 0.0001 to 0.0352 ± 0.013.

First: UAGUGACACACCUUCUCUGAGAGAUUUUCA
Second: UAGUGACAGUCCUUCUCUGAGAAGAUUAACA
The “pre-steady-state target cleavage rate” value of the first is higher: 0.064 ± 0.02 for the first, 0.0106 ± 0.0029 for the second.

Compared with UAGUGUGUCACCUUCUCUCAGUGAUUAACA, UAGUGACUCACCUACUCUCAGAGAUUAACA is higher in “pre-steady-state target cleavage rate” value: 0.00624 ± 0.0036 for the first, 0.0256 ± 0.0037 for the second.

Compared with UAGUGUGUCACCUUACUCUGAGAGAUUAACA, UAGUCAGUCACCUUCUCUGAGAGAUUUACA is higher in “pre-steady-state target cleavage rate” value: 0.104 ± 0.0082 for the first, 0.172 ± 0.024 for the second.

Going from UAGUCUGUCACCUUCUCUGAGAGAGUUAACA to UAGUGACACACCUUCUCUGCGAGAUUAACA, the “pre-steady-state target cleavage rate” value falls from 0.297 ± 0.035 to 0.0905 ± 0.017.

First: UAGUGACACACGUUCUCUGUGAGAUUAACA
Second: UAGUGACUCACCUUCUCUGAGAGAUUAACCA
The “pre-steady-state target cleavage rate” value of the first is lower: 0.0289 ± 0.0047 for the first, 0.121 ± 0.0086 for the second.

Compared with UAGUGAGUCACGAUCUCUGAGAGAUUAAGA, UAGUCUGUCAGCAUCUCUGAGAGAUUAACA is higher in “pre-steady-state target cleavage rate” value: 0.0429 ± 0.013 for the first, 0.112 ± 0.0069 for the second.

UAGUGACAGUCCUUCACUGAGACAUUAACA and UAGUGACAGUGGUUAUCUGAGAGAUUAACA are within error of each other in “pre-steady-state target cleavage rate” value: 0.00652 ± 0.0032 for the first, 0.00401 ± 0.0025 for the second.

UAGUGUGUGACCUUCUCUGAGAGAUUAUCA and UAGUGACUCUCCUUCUCUGAGAGAUUUACA are within error of each other in “pre-steady-state target cleavage rate” value: 0.0873 ± 0.019 for the first, 0.082 ± 0.013 for the second.

First: UAGUGUGUCACCUUCUUCUGAGAGAUUAACA
Second: UAGUGACAGUGGUUCUCUGAGGGAUUAACA
The “pre-steady-state target cleavage rate” value of the first is higher: 0.039 ± 0.011 for the first, 0.00379 ± 0.0018 for the second.

Compared with UAGUGACACACCUUCACUGAGAGUUUAACA, UAGUCUGUCACCUUCUCUGAGAGAUUACCA is higher in “pre-steady-state target cleavage rate” value: 0.0427 ± 0.017 for the first, 0.163 ± 0.03 for the second.

UAGUCUCUCACCUUCUCUGUGAGAUUAACA and UAGUGACACACCUUCUCAGAGAGAUUAUCA are within error of each other in “pre-steady-state target cleavage rate” value: 0.0394 ± 0.0057 for the first, 0.0524 ± 0.017 for the second.

Compared with UAGUGAGUCACAUUCUCUGAGAGAUUAACA, UAGUGUGUCACCUUCUCAGAGAGAUUAAGA is lower in “pre-steady-state target cleavage rate” value: 0.183 ± 0.014 for the first, 0.106 ± 0.028 for the second.

Compared with UAGUGACAGACCUUCUCUGAUGAGAUUAACA, UAGUCAGUCACCUUCACUGAGAGAUUAACA is higher in “pre-steady-state target cleavage rate” value: 0.00458 ± 0.0044 for the first, 0.15 ± 0.017 for the second.

Going from UAGUGACUCACCUUCUGUGAGAGAUUAUCA to UAGUGACUGCACCUUCUCUGAGAGAUUAACA, the “pre-steady-state target cleavage rate” value rises from 0.00563 ± 0.0023 to 0.184 ± 0.011.

First: UAGUCUGUCUGGUUCUCUGAGAGAUUAAGA
Second: UAGUGACUCACCUUCUCUGAAAGAUUAACA
The “pre-steady-state target cleavage rate” value of the first is lower: 0.0119 ± 0.0022 for the first, 0.0754 ± 0.008 for the second.

UAGUGACAGACCUACUCUGACAGAUUAACA and UAGUGACUCACCUUCCUGAGAGAUUAACA are within error of each other in “pre-steady-state target cleavage rate” value: 0.00701 ± 0.0032 for the first, 0.00513 ± 0.0042 for the second.

First: UAGUGUGUCACCUUCUCUCAGAGAAUAACA
Second: UAGUGACACACCUUCUCAGAGAGAUUAACA
The “pre-steady-state target cleavage rate” value of the first is lower: 0.00934 ± 0.0054 for the first, 0.14 ± 0.019 for the second.

First: UAGUGACACACCUUGUCUCAGAGAUUAACA
Second: UAGUGACAGUGGAACUCUGAGAGAUUAUGA
The “pre-steady-state target cleavage rate” value of the first is higher: 0.0231 ± 0.0047 for the first, under 0.0001 for the second.

First: UAGUGACAGUCCUUCUCUCUCUCUAAUUGA [g13:g20:cont:t1A]
Second: UAGUGACAGUGCUUCACUGAGAGAUUUACA
The “pre-steady-state target cleavage rate” value of the first is lower: under 0.0001 for the first, 0.0125 ± 0.0064 for the second.

First: UAGUGACAGUCGUUCUCUGAGAGUUUAACA
Second: UAGUCUGUCACCUUCUCAGAGAGAUUAUCA
The “pre-steady-state target cleavage rate” value of the first is lower: 0.00649 ± 0.0029 for the first, 0.153 ± 0.034 for the second.

Compared with UAGUGACUCACCUUCUCUGAGAGAUAUAACA, UAGUGACAGUCCUUCUCAGACAGAUUAACA is lower in “pre-steady-state target cleavage rate” value: 0.141 ± 0.017 for the first, 0.00382 ± 0.0027 for the second.

Compared with UAGUGACACACCUUCUGUGAGAGAUUAACA, UAGUGACACACCUUCUCUCAGAGAUUAAGA is lower in “pre-steady-state target cleavage rate” value: 0.142 ± 0.017 for the first, 0.00667 ± 0.0052 for the second.

First: UAGUGACACACCUUCUCUGAGGAGAUUAACA
Second: UAGUGACUCAUCUUCUCUGAGAGAUUAACA
The “pre-steady-state target cleavage rate” value of the first is lower: 0.00946 ± 0.0049 for the first, 0.189 ± 0.013 for the second.

Going from UAGUGACAGUGGUUCUCUGAGAGAUUAAUA to UAGUGAGUCACCUUCACAGAGAGAUUAACA, the “pre-steady-state target cleavage rate” value rises from 0.00332 ± 0.0022 to 0.0664 ± 0.0081.

Going from UAGUGAGUCACCUCUCUGAGAGAUUAACA to UAGUGAGUCACCUUCUCUGAGAGAUCAACA, the “pre-steady-state target cleavage rate” value falls from 0.142 ± 0.015 to 0.0788 ± 0.025.

First: UAGUGUGUCACCUACUCUGAGAGUUUAACA
Second: UAGUCUGUCACCUACUCUGACAGAUUAACA
The “pre-steady-state target cleavage rate” value of the first is higher: 0.129 ± 0.032 for the first, 0.00422 ± 0.0035 for the second.

Compared with UAGUGACACACCUUCACUGUGAGAUUAACA, UAGUGUGUCACCUUCUGAGAGAGAUUAUGA is lower in “pre-steady-state target cleavage rate” value: 0.0574 ± 0.0084 for the first, 0.0125 ± 0.0063 for the second.

Reference: the supplement of paper PMC10338343
